Measured values: the RNAGym collection of RNA variant scans (doi:10.1073/pnas.2313332121)
This sample is rich in variants without activity.

B1: TPR 5TU (parent)
chain: GGAUCUUCUCGAUCUAACAAAAAAGACAAAUCUGCCACAAAGCUUGAGAGCAUCUUCGGAUGCAGAGGCGGCAGCCUUCGGUGGCGCGAUAGCGCCAACGUUCUCAACUAUGACACGCAAAACGCGUGCUCCGUUGAAUGGAGUUUAUCAUG

Variants of: B1
Assay: polymerase ribozyme fitness, log enrichment relative to wild type (log ratio); higher = more active; in vitro selection for triplet polymerase activity
Summary of the method: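 Both subunits of a heterodimeric triplet polymerase ribozyme were given their own mutant library, built by PCR and transcribed. Each library was annealed with a biotinylated primer, the partner subunit and triplets, incubated frozen at −7 °C, and its extended constructs gel-excised, captured on streptavidin beads and amplified by RT-PCR, all in one round done in triplicate. Fitness is the logarithm of genotype enrichment relative to wild-type enrichment, with replicates averaged by inverse-variance weighting. That logarithm is base 2, and Illumina-sequenced genotypes needed ≥10 input reads and ≥1 read per output.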

Variant | polymerase ribozyme fitness (log ratio)
C5G A29C A47C G50A G86A U90A A91U G143C | ≤ -4.2
C5G A29U A64U G86U A150G | ≤ -4.2
C5G A37U G141U | -1.94
C5G A39G G59A G84U C96A A121U | ≤ -4.2
C5G A39G G88A C131G | ≤ -4.2
C5G A40C C76U G92A C149U | ≤ -4.2
C5G A41C C43U G86C G128U | ≤ -4.2
C5G A41C G42A G50U C93G C96A | ≤ -4.2
C5G A49G C57A A91U C108G U130C U144G | ≤ -4.2
C5G A49U A52U U56A G67C C85U C87U G92A | ≤ -4.2
C5G A49U C57U C93G C103G U144C | ≤ -4.2
C5G A49U U53A G67U G68A C95A U144C | ≤ -4.2
C5G A52G G71U A73G C76A G88U A106G | ≤ -4.2
C5G A60U G65C U77G G86A A91C G126A | ≤ -4.2
C5G A91U | ≤ -4.2
C5G C8G C85A G126U | ≤ -4.2
C5G C14A A22C C43A A49C A73G C95A | ≤ -4.2
C5G C14A C36G A121U G126C | ≤ -4.2
C5G C14G C43G A73G G92U A97C | ≤ -4.2
C5G C18A C87G G143A | ≤ -4.2
C5G C32U C96U A122G | -3.38
C5G C35A A60G U61A C93U C95G A119C G141A | ≤ -4.2
C5G C36U G74U G143A U145G | ≤ -4.2
C5G C38U A39C C95A G100C | ≤ -4.2

Variant | polymerase ribozyme fitness (log ratio)
C5G C38U G50A | -1.8
C5G C57G G84A G141C C149A | ≤ -4.2
C5G C69G C93U | -4.12
C5G C76U G88C C105G | ≤ -4.2
C5G C85U A142U | -1.45
C5G G50C C85U | -3.69
C5G G50U C57U G92C A120G | -2.75
C5G G65A A66G A137C G141C | ≤ -4.2
C5G U6C A26U C57U G94U G100U | ≤ -4.2
C5G U6G U7G C14G A28C A30C G50C C51G A89G C93G G94U C105U C118A G133A | ≤ -4.2
C5G U7C A16C C27U C32G A49C U53G C125A A137U G143C | ≤ -4.2
C5G U7C C35A U77A C79A G88U U90G G94U G141A | ≤ -4.2
C5G U9C A16C A28G A30U C32G C35A G59U G92U C105U | ≤ -4.2
C5G U9C A97G G141C | -3.27
C5G U13C C18U G46U C108U A122G | ≤ -4.2
C5G U15A A39C G50A A52C C76A C93A U101G | ≤ -4.2
C5G U33C G50C C57U G71A A73U A91U | ≤ -4.2
C5G U33G A37U A60C C75U G94U C108U | ≤ -4.2
C5G U53A U61A C75A C76G C85U U127G U135G | ≤ -4.2
C5G U55A | -0.729
C5G U55A C93U C118A | -3.5
C5G U56A G58C C79G C87U | ≤ -4.2
C5G U82A C87A C93U G133C C149A | ≤ -4.2
C5G U82A C95U | -0.788

Variant | polymerase ribozyme fitness (log ratio)
C5G U82G A91U C114A A119U A121C G133C | ≤ -4.2
C5G U144G | 0.355
C5U A12U A30C G59C C125G G126U | ≤ -4.2
C5U A16U G88U U134G U139G | ≤ -4.2
C5U A17C G50A U77A C87G A91C A106U U109G | ≤ -4.2
C5U A17U G50A G71U G86U C87A | ≤ -4.2
C5U A21U G84A G112U G117U G124C | ≤ -4.2
C5U A22G A23G U53A A91C C95U | ≤ -4.2
C5U A23C A40C A49U G70C G94A | ≤ -4.2
C5U A23G C32A C51U G84A C95A C99G U146A | ≤ -4.2
C5U A24C G46C G67C C72G A73C C93G U144A | ≤ -4.2
C5U A24U C32G U53G C123G A147G U151G | ≤ -4.2
C5U A26C C95A C123A G143U C149A | ≤ -4.2
C5U A29U C38U G67C G80C C96U U101G U139A | ≤ -4.2
C5U A30U C57U G94C C99U G100U G126U C132U | ≤ -4.2
C5U A39U C43A U77C C95G C96U U144C | ≤ -4.2
C5U A40C C54G G92A A121U C132U U146A | ≤ -4.2
C5U A41U C72U G94A C99G | ≤ -4.2
C5U A91G G92U A107G | ≤ -4.2
C5U C8G U61C G92C G100U | ≤ -4.2
C5U C14G G34U G86U A98G A115G G133A | ≤ -4.2
C5U C27G C95U C96U G141C | ≤ -4.2
C5U C32G G92C U104C | ≤ -4.2
C5U C36G A64U G67C G86U A97C | ≤ -4.2

Variant | polymerase ribozyme fitness (log ratio)
C5U C38A A52U U82G G86U C116U C118U G140U | ≤ -4.2
C5U C51A | -0.999
C5U C51A C54G G59C G84A C116G | -3.05
C5U C51A G58A G81C | -1.81
C5U C54G | -0.591
C5U C75A | -4.03
C5U C85G U104C | -3.03
C5U C87U | 0.457
C5U G11A A22C C57A G92A U139C | ≤ -4.2
C5U G11A A37G C69G C75G C93A C132U | ≤ -4.2
C5U G46U A47C U55A G59C G74A U82A G88U C96A U144G U146G | ≤ -4.2
C5U G48C C79A C85U C95G | ≤ -4.2
C5U G50U C69U G92C C105U C108G | ≤ -4.2
C5U G65C G68U A97G A98U | ≤ -4.2
C5U G68C C85G C125G | ≤ -4.2
C5U G84A A142U | -0.976
C5U G88C C114U G141U | ≤ -4.2
C5U G92A | -1.32
C5U U7C A21U G86A C131A | -4.16
C5U U13C C85U U101G C105A U109G A110G | ≤ -4.2
C5U U13G A17G A30U C32G G48C G58C C87U A119C U145C | ≤ -4.2
C5U U13G A20C C27G G80A C87U U148G | ≤ -4.2
C5U U33G G50C C54A U55A C69A C76A C85U C149G | ≤ -4.2
C5U U45C A60U G68A C87U C96U | ≤ -4.2

Variant | polymerase ribozyme fitness (log ratio)
C5U U56A C75U G83C | -0.766
C5U U82A C85A C99A U101G G140C | ≤ -4.2
U6A A12U | 0.206
U6A A12U A29U A64C | ≤ -4.2
U6A A12U G34A U45A G88A C149U | ≤ -4.2
U6A A16U A107C C131G | ≤ -4.2
U6A A19U G50A U78G G92A U109G | ≤ -4.2
U6A A20G A66U G67U C69U | ≤ -4.2
U6A A21U G74U A91G C95G C105G A147U | ≤ -4.2
U6A A22C G50A U61G C79U C85A G143U A147C | ≤ -4.2
U6A A22G C125U | -0.424
U6A A22U A41C G67A C79G U109A G112A A119C G143U | ≤ -4.2
U6A A23U A30U G46A A47C | ≤ -4.2
U6A A24U G81U C85G G140U | ≤ -4.2
U6A A26C A122C | -2.04
U6A A28U C96G A113U G143A | ≤ -4.2
U6A A28U U56G U102G A120U G126U | ≤ -4.2
U6A A29G G74A C103G A107G A122U | ≤ -4.2
U6A A30G A39U U53A C95G C118U | ≤ -4.2
U6A A37C C79G | ≤ -4.2
U6A A40U A41C U45A G48C G68U | ≤ -4.2
U6A A66G U82A A89G A119U A120U C129G U145G | ≤ -4.2
U6A C8G A12U A22G A28C A39U C57G G100U C118A | ≤ -4.2
U6A C10A A40U A47C U56A G94C A115U | ≤ -4.2

Variant | polymerase ribozyme fitness (log ratio)
U6A C10G A22C U44A G83A G92U U101C G124A G143C | ≤ -4.2
U6A C10G G50A U55A G88C C103G A110C U134A G141A | ≤ -4.2
U6A C14G A20G C76G C79A G83U G133A G143C | ≤ -4.2
U6A C14G C85G U90G A113U | ≤ -4.2
U6A C18G C87A A91G A120U U139A | ≤ -4.2
U6A C27A C85G | ≤ -4.2
U6A C27A G86C A113C | ≤ -4.2
U6A C35U C54U C63G G80A C93U | ≤ -4.2
U6A C35U G65U G94U A98C C132U U151G | ≤ -4.2
U6A C38G C57A C85U C87U A106C U139C | ≤ -4.2
U6A C38U U44A U82G C85U C95A U101G | ≤ -4.2
U6A C43U G50A G88U A107G G126C | ≤ -4.2
U6A C54A C79G C103A G136A | ≤ -4.2
U6A C54A C85A C96U G133U U146G | ≤ -4.2
U6A C54A C95G A98U | -2.26
U6A C54A G88C | ≤ -4.2
U6A C54U G58C C85A U134C | -1.4
U6A C69U C85G C108U | ≤ -4.2
U6A C79A G86U A89C C103G | ≤ -4.2
U6A C85U | -0.519
U6A C87A | ≤ -4.2
U6A C87G A119C | ≤ -4.2
U6A G11A A30C A52G C85U C87U C95G C103U G141U U144A | ≤ -4.2
U6A G11A A64C C72U C87U A120G C149A | ≤ -4.2

Variant | polymerase ribozyme fitness (log ratio)
U6A G25C A29C G42C G67C C79U A91U C105U A110G A147U | ≤ -4.2
U6A G81C G94U C125U | -2.57
U6A G86A C87G | ≤ -4.2
U6A G88U C93U C95G | ≤ -4.2
U6A U7A A29G C38U C95G C99A | ≤ -4.2
U6A U7C C32U C69A C79A U151G | ≤ -4.2
U6A U7G C14U G50C U56C C87G A89C G100C A120G C125U | ≤ -4.2
U6A U9A U61G A89G | ≤ -4.2
U6A U13G C14A A37G G50U U55A G59A C87G G94A C96U C116A | ≤ -4.2
U6A U33C G100U | ≤ -4.2
U6A U55A | -1.4
U6A U56A U82G C103U | -1.06
U6A U61A C93A | ≤ -4.2
U6A U146G A150G G152A | -1.38
U6C A17C C35U G48U U55A U56A C87A C125U | ≤ -4.2
U6C A19C A52U C54A U90G U139C U146A | ≤ -4.2
U6C A19G G58A A138G A150C | ≤ -4.2
U6C A21U U55A G58A G86A | -3.18
U6C A22G A37C A40C C85U G126A | ≤ -4.2
U6C A23G A49U U55A G88U | ≤ -4.2
U6C A47C U134G U135C | ≤ -4.2
U6C A49G G59A G92A U111A | ≤ -4.2
U6C A52U C76G A120U U127A | ≤ -4.2
